Experimental findings from a collection of fitness landscapes (doi:10.1126/science.1257360) are described below.

This is one part of the list.

B1: PhoQ; a variant is named by its letters at X, in order, P23837 (parent)
chain: MKKLLRLFFPLSLRVRFLLATAAVVLVLSLAYGMVALIGYSVSFDKTTFRLLRGESNLFYTLAKWENNKLHVELPENIDKQSPTMTLIYDENGQLLWAQRDVPWLMKMIQPDWLKSNGFHEIEADVNDTSLLLSGDHSIQQQLQEVREDDDDAEMTHSVAVNVYPATSRMPKLTIVVVDTIPVELKSSYMVWSWFIYVLSANLLLVIPLLWVAAWWSLRPIEALAKEVRELEEHNRELLNPATTRELTSLVRNLNRLLKSERERYDKYRTTLTDLTHSLKTPLXXLQXXLRSLRSEKMSVSDAEPVMLEQISRISQQIGYYLHRASMRGGTLLSRELHPVAPLLDNLTSALNKVYQRKGVNISLDISPEISFVGEQNDFVEVMGNVLDNACKYCLEFVEISARQTDEHLYIVVEDDGPGIPLSKREVIFDRGQRVDTLRPGQGVGLAVAREITEQYEGKIVAGESMLGGARMEVIFGRQHSAPKDE

The experiment covers variants of B1. Kind of experiment: enrichment ratio after two sorts for PhoP signalling (ratio (wild type AVST 3.29)); higher = more functional. The settings on record: with PhoP (E. coli).
On to MMEN, for which the enrichment ratio was no more than 0.25.

With YRLP, the enrichment ratio was no more than 0.25. The result for YGKS reads no more than 0.25; that for ESLR, no more than 0.25; that for QCWF, 6.62. The result for QLME reads no more than 0.25. The result for QHML reads no more than 0.25. In the case of KILI, the enrichment ratio was no more than 0.25. As to HWKV, the enrichment ratio was no more than 0.25. Under AEVK stands no more than 0.25. Under PIFS stands no more than 0.25; under FLNL, no more than 0.25. Under HSQP stands no more than 0.25. In the case of LFVT, the enrichment ratio was no more than 0.25. Under HWYQ stands no more than 0.25; under VFFR, no more than 0.25; under FYTG, 0.442. The result for NMYF reads no more than 0.25; that for YKND, no more than 0.25; that for NPGE, no more than 0.25.

With RDGA, the enrichment ratio is no more than 0.25. Turning to YMRS, the enrichment ratio was no more than 0.25. YTWM: the enrichment ratio is no more than 0.25. Under MIKP stands no more than 0.25; under PETM, no more than 0.25. The result for KRRS reads no more than 0.25; that for MFCL, no more than 0.25. Under KYGI stands no more than 0.25.

VDKC: the enrichment ratio was no more than 0.25. The result for DEGM reads no more than 0.25; that for GVKA, no more than 0.25.

Consider CTYI, for which the enrichment ratio is no more than 0.25. Under HWKR stands no more than 0.25; under HEAH, no more than 0.25. Under KFRE stands no more than 0.25; under PKIY, no more than 0.25. The result for SDDV reads 0.265; that for MNDP, no more than 0.25; that for KSRS, 0.793. Consider VDSS, for which the enrichment ratio is no more than 0.25. Under TLYW stands no more than 0.25; under ICRM, no more than 0.25; under YGQF, no more than 0.25. Under NRLL stands no more than 0.25. Consider TPMH, for which the enrichment ratio is no more than 0.25. The result for GQTA reads no more than 0.25; that for DMYQ, no more than 0.25; that for GVTY, no more than 0.25.

Consider FPFH, for which the enrichment ratio was no more than 0.25.

Regarding PTNF, the enrichment ratio is no more than 0.25. Under AIPI stands 2.44.

For the variant PPKS, the enrichment ratio is no more than 0.25.

GAPA: the enrichment ratio is no more than 0.25.

Regarding TAMQ, the enrichment ratio turned out to be 8.34. In the case of RYHR, the enrichment ratio was no more than 0.25. Under ICAE stands no more than 0.25; under QKEF, no more than 0.25; under LCTT, no more than 0.25. On to SKTF, for which the enrichment ratio was no more than 0.25. The result for KVDE reads no more than 0.25; that for ELCH, no more than 0.25. Under MELD stands no more than 0.25. Under QMFP stands no more than 0.25; under VVVS, 0.659; under HVKW, no more than 0.25.

As to LWTG, the enrichment ratio was no more than 0.25. The result for HRHK reads no more than 0.25; that for SECN, 23.5. The result for PHFP reads no more than 0.25; that for DNCN, no more than 0.25; that for VWLT, no more than 0.25. Consider AFWS, for which the enrichment ratio is no more than 0.25. Regarding FQSP, the enrichment ratio was no more than 0.25. YEVV: the enrichment ratio turned out to be 1.59.

Turning to TWTY, the enrichment ratio is no more than 0.25.

Regarding QTRK, the enrichment ratio is no more than 0.25. As to AFYH, the enrichment ratio is no more than 0.25. The result for MVDW reads no more than 0.25; that for KGAV, no more than 0.25. Under HRYK stands no more than 0.25. Regarding MIPY, the enrichment ratio is no more than 0.25. Under GNFS stands no more than 0.25.

As for HKMY, the enrichment ratio is no more than 0.25. For IPWR, the enrichment ratio was no more than 0.25. The result for FCFP reads no more than 0.25. Under ITQG stands no more than 0.25. The result for DTNG reads no more than 0.25; that for SAWS, no more than 0.25; that for IAWH, no more than 0.25. Consider RPRW, for which the enrichment ratio was no more than 0.25.

In the case of HRFQ, the enrichment ratio was no more than 0.25. The result for NNRR reads no more than 0.25. Under KPLW stands no more than 0.25. For the variant HNWI, the enrichment ratio is no more than 0.25. The result for KTRR reads no more than 0.25; that for LRFP, no more than 0.25. On to RTQY, for which the enrichment ratio is no more than 0.25. Under ILCI stands no more than 0.25; under SKMY, 1.95. With PSWC, the enrichment ratio is no more than 0.25. Under VTNS stands no more than 0.25; under MFSK, no more than 0.25. Turning to LDIP, the enrichment ratio was no more than 0.25. Regarding WVHR, the enrichment ratio was no more than 0.25. Under TTPC stands no more than 0.25; under NMYG, no more than 0.25. As to PEMS, the enrichment ratio was no more than 0.25. Under YYEL stands no more than 0.25. Under NLIV stands no more than 0.25; under WDHE, no more than 0.25; under PLNE, no more than 0.25. Under GDDH stands no more than 0.25; under FRFV, no more than 0.25. With NKLH, the enrichment ratio was no more than 0.25.

For PFQW, the enrichment ratio is no more than 0.25. With IIRM, the enrichment ratio is no more than 0.25. Under GYQW stands no more than 0.25; under SWCP, no more than 0.25; under VCNM, no more than 0.25. The result for YWLR reads no more than 0.25. Under GRLT stands no more than 0.25. Turning to YNQQ, the enrichment ratio was no more than 0.25.

Take VVFR: the enrichment ratio is no more than 0.25. Under QEGW stands no more than 0.25; under NSSV, no more than 0.25. The result for FDPI reads no more than 0.25; that for EDCS, no more than 0.25; that for EYWS, no more than 0.25. LCAT: the enrichment ratio is no more than 0.25. In the case of AHYQ, the enrichment ratio is no more than 0.25.

As for HGQA, the enrichment ratio was no more than 0.25. The result for SHEG reads no more than 0.25. The result for YASI reads no more than 0.25. The result for LAWQ reads no more than 0.25; that for CFST, no more than 0.25; that for YGPR, no more than 0.25.

As for EHHI, the enrichment ratio was no more than 0.25. Under TICG stands 6.77; under HWSP, no more than 0.25; under WQDR, no more than 0.25.

As to DYIF, the enrichment ratio was no more than 0.25. Consider VTQF, for which the enrichment ratio turned out to be 1.56. As for LQYN, the enrichment ratio was no more than 0.25. Under EGEH stands no more than 0.25; under LGYI, 3.07; under DPLH, no more than 0.25.

Take TFNT: the enrichment ratio is 1.87. Under SLHR stands no more than 0.25. Under DPNA stands no more than 0.25; under GHWQ, no more than 0.25.

With FCMT, the enrichment ratio was no more than 0.25. Consider NPDT, for which the enrichment ratio is no more than 0.25. Under IQFD stands no more than 0.25.
